The values that follow come from PubChem BioAssay AID1347073 (National Center for Advancing Translational Sciences (NCATS), 2019).

The campaign covered roughly 45,000 compounds. About 200 (0.44%) were called active. Inconclusive results (about 7%) are left out. The call rests on the fitted dose curve; in most records, active means well fitted activation curve with a large enough effect; inconclusive means small, poorly fitted or top-dose-only effect; inactive means no such curve, though single readings can be large or run the other way. The list shows a part of the results.

A short description of this assay: qHTS of TDP-43 Inhibitors: NCGC Sytravon Library Screen. Further: 0% is about no effect; nearly all actives have a fitted effect of over 55% in size. The settings on record: yeast TDP-43 toxicity rescue, BacTiter-Glo growth, 24 h; series mostly up to 46.1 µM; growth rescue (activation): at the top concentration. The method in brief:
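TDP-43-expressing yeast, pregrown in raffinose, seeded at OD600 0.02 in galactose medium with compound for 24 hr at 30 deg C. Growth read by BacTiter-Glo luminescence, so rescue of toxicity appears as activation.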
In general terms: Quantitative high-throughput screening tests each substance at several concentrations.
On to `Cc1cccn2c(=O)c3cc(C(=O)N4CCCC(C)C4)sc3nc12` (centres undefined), for which the “growth rescue (activation)” value was inactive: 28.5%.
Consider `CCOC(=O)C1CCN(c2nc(C)cc(C)c2C#N)CC1`, for which the “growth rescue (activation)” value is inactive: 18.8%.
The result for `Cc1ccc(S(=O)(=O)Nc2cccc(CP(=O)(c3ccccc3)c3ccccc3)c2)cc1` reads inactive: 32.1%; that for `COc1ccccc1N(CC(=O)Nc1cccc(C(F)(F)F)c1)S(C)(=O)=O`, inactive: 12%.
On to `C/C(=N/NC(=O)Nc1ccccc1)c1ccc(C)cc1`, for which the “growth rescue (activation)” value is inactive: -7.44%.
The result for `O=C(c1cc(-c2ccc(Br)cc2)on1)N1CCCC1` reads inactive: 3.8%.
In the case of `Cc1cc(NCCCN)nc(-c2ccccc2O)n1` it was inactive: -18.1%.
In the case of `CC(=O)Nc1ccc(NC2=C/C(=N/S(=O)(=O)c3cccs3)c3ccccc3C2=O)cc1` it was inactive: -5.61%; in that of `CC(=O)Nc1ccc(SCC(=O)Nc2ccc3c(c2)OCCO3)cc1`, inactive: -6.69%; in that of `Cc1ccc(Cn2c(N)nc3ccccc32)cc1`, inactive: 7.55%.
Regarding `Cc1nnc2n(C)c(=O)c3c4c(sc3n12)COC(C)(C)C4`, the “growth rescue (activation)” value is inactive: -7.88%.
The result for `O=C(CSc1nnc(-c2ccncc2)n1-c1ccccc1)Nc1ccc(C(=O)O)cc1` reads inactive: -8.19%; that for `CCCn1c(N)c(C(=O)NS(=O)(=O)c2ccc(C)cc2)c(=O)n(C)c1=O`, inactive: -10.3%; that for `S=C(NCCCCNC(=S)NCc1ccccc1)NCc1ccccc1`, inactive: -10.1%.
In the case of `CC(=O)NC(Cc1cccc(C)c1)C(=O)NC1CCN(S(=O)(=O)c2ccccc2)CC1` (centres undefined) it was inactive: -4.32%.
Regarding `Cc1ccc(S(=O)(=O)/N=C(/Nc2ccc([N+](=O)[O-])cc2)c2ccccc2)cc1`, the “growth rescue (activation)” value is inactive: -10.3%.
Consider `COC(=O)CNC(=O)c1cc(-c2ccncc2)nc2ccccc12`, for which the “growth rescue (activation)” value is inactive: -12.4%.
As for `Cc1cccn2c(CN[C@@H]3CCCC[C@H]3c3ccccc3)c(C(=O)N3CCOCC3)nc12`, the “growth rescue (activation)” value was inactive: -2.71%.
Turning to `C=CCNC(=O)c1ccc(Cn2cc(C(F)(F)F)ccc2=O)cc1`, the “growth rescue (activation)” value is inactive: 9.51%.
The result for `CCCOc1cccc(C(=O)NC(=S)Nc2ccc(N3CCN(C)CC3)cc2)c1` reads inactive: -2.5%; that for `Nc1cccc(C(=O)OCC(=O)Nc2cccc3c2C(=O)c2ccccc2C3=O)c1`, inactive: -6.71%; that for `C=C(Br)Cn1c(CCCC)nc2ccccc21`, inactive: 1.32%.
Regarding `C/C(CC(=O)Nc1cccnc1)=N/NC(=O)COc1ccc(Cl)cc1Br`, the “growth rescue (activation)” value is inactive: 6.99%.
In the case of `Cc1ccc(-n2ncc3c2CC(C)(C)CC3NC(=O)CCc2c(C)noc2C)cc1` (centres undefined) it was inactive: 27.2%.
Consider `S=C1NCCOCCOCCOCCNC(=S)N2CCOCCOCCN1CCOCCOCC2`, for which the “growth rescue (activation)” value was inactive: -8.16%.
In the case of `O=C(CN1C(=O)c2ccccc2C1=O)NCC(=O)OCC(=O)c1cccc([N+](=O)[O-])c1`, the “growth rescue (activation)” value is inactive: 9.95%.
In the case of `NC(=O)CSc1nc2cc(S(=O)(=O)N3CCOCC3)ccc2o1`, the “growth rescue (activation)” value is inactive: 10.1%.
With `CCOC(=O)CC(c1ccc(N)cc1)n1c(C)ccc1C` (centres undefined), the “growth rescue (activation)” value was inactive: 6.66%.
In the case of `CCN1CCN(C(=O)CCc2nnc(CCc3ccc(OC)cc3)o2)[C@@H](C)C1=O` it was inactive: 15.5%.
The result for `CCOC(=O)c1c(C)oc2ccc(NS(=O)(=O)c3ccc(C(=O)O)cc3)cc12` reads inactive: -0.633%.
In the case of `COc1c(N2CCN(C(=S)Nc3ccccc3F)C(C)C2)c(F)cc2c(=O)c(C(=O)O)cn(C3CC3)c12` (centres undefined) it was inactive: 8.98%.
`CC(=O)c1ccc(N=Nc2ccc(N(C)C)cc2)cc1`: the “growth rescue (activation)” value is inactive: -15.6%.
On to `COc1cc(C(=O)OCCCN=C2NS(=O)(=O)c3ccccc32)cc(OC)c1OC`, for which the “growth rescue (activation)” value is inactive: 3.53%.
As to `Cc1cc(C)c2nc(-c3ccco3)cc(C(=O)O)c2c1`, the “growth rescue (activation)” value was inactive: 15.8%.
In the case of `COc1cc(/C=C2\SC(=S)N(CCC(=O)N3CCN(C)CC3)C2=O)cc(OC)c1OC` it was inactive: 5.19%; in that of `NS(=O)(=O)c1ccc(NC(=O)c2ccc(S(=O)(=O)N3CCCCCC3)cc2)cc1`, inactive: 1.82%; in that of `Cc1ccc(O)c(-c2cc(-c3cccc(Br)c3)n[nH]2)c1`, inactive: -93%.
In the case of `COc1ccc(NC(=O)N[C@@H](CCSC)C(=O)O)cc1Cl` it was inactive: -1.37%.
The result for `O=C(O)/C=C/c1ccc(S(=O)(=O)N(CCO)CCO)cc1` reads inactive: 14.1%; that for `Cc1ccc(OCC(=O)NCCNC(=O)c2ccco2)cc1`, inactive: 0.954%; that for `COc1ccc(NC(=O)Nc2ccccc2SC)cc1`, inactive: 14.9%.
Take `Cn1c(N)c(C(=O)COC(=O)CNS(=O)(=O)c2cccc(Cl)c2)c(=O)n(C)c1=O`: the “growth rescue (activation)” value is inactive: -4.89%.
The result for `O=C(COC(=O)c1ccc(O)cc1O)NC1CCS(=O)(=O)C1` (centres undefined) reads inactive: 36.1%; that for `Cc1ccccc1Cc1c(C)nc2nc(SCC(=O)NCCCN3CCCC3)nn2c1C`, inactive: -1.39%.
The result for `CC(C)=CCN1CCNC(=O)C1CC(=O)NCc1nc(C)c(C)s1` (centres undefined) reads inactive: -1.15%; that for `Cc1cccnc1C(c1ccc(F)cc1)N(C)C(=O)C1CCN(CCOc2ccc(Cl)cc2Cl)CC1` (centres undefined), inactive: -9.85%; that for `COc1ccc(/C=N/NC(=O)CCNc2n[nH]c(=O)[nH]c2=O)c(OC)c1`, inactive: 0.0758%.
Take `CC(=O)C1=C(O)C(=O)N(c2ccc(S(=O)(=O)Nc3nccs3)cc2)C1c1ccc(F)cc1` (centres undefined): the “growth rescue (activation)” value was inactive: 43.1%.
In the case of `N#Cc1cccc(CN2C=NS(=O)(=O)c3ccccc32)c1` it was inactive: 0.0781%.
The result for `COc1ccc(CNC(=O)c2cc(S(=O)(=O)N3CCCCC3)ccc2Cl)cc1OC` reads inactive: -0.673%.
Consider `CC(C)C[C@H](NC(=O)c1ccc(OC2CCN(C(=O)C3CC3)CC2)cc1)C(N)=O`, for which the “growth rescue (activation)” value was inactive: 6.51%.
In the case of `CCOc1ccc(NC(=O)CNC(=O)c2ccc(OC)cc2)cc1` it was inactive: 5.8%; in that of `CCn1c(-c2ccccc2)c(C(=O)CC#N)c2ccccc21`, inactive: 11.1%.
In the case of `CC(=O)c1ccc(NC(=O)N2CCN(c3ccc(C)cc3)C(C)C2)cc1` (centres undefined) it was inactive: 4.7%.
